Read-outs that look alike come from different tables or passages of the source.
Tested on: B16-F10 (mouse melanoma)

## [Ru(5-FU)(PPh3)2(bipy)]PF6 [RU/5-FU]
B16-F10, IC50 compared with 5-FU
  more potent than 5-FU (fold): 2 fold
SI = IC50[MRC-5]/IC50[B16-F10]
  Selectivity index (SI): 4.5
SI = IC50[PBMC]/IC50[B16-F10]
  Selectivity index (SI): 2.7
read-out: IC50 in µM, B16-F10, alamar blue assay, 72 h incubation, 2D culture
  IC50: 2.1 µM
